The subject of one assay is U937 cells. Kind of assay: Counter screen: cell viability without the TSQ cocktail (CelltiterGlo). The arrangement: species or system human. As to conditions: Homo sapiens, U-937, cell viability by CelltiterGlo, read-out: Off-target effect (IC50 cell-based assay). Here is the method: Counter screen: In parallel, all compounds were tested for their ability to affect cell viability. The same U937 cells were treated with compound in DMSO without the TSQ cocktail. This counter screen enabled evaluation of off-target effects. In this case, cell viability was measured by CelltiterGlo.

The target in the next assay is T1, RIP3 (Homo sapiens, UniProt Q9Y572).
T1 construct: purchased DiscoverX (KINOMEscan service); host or cells: E. coli BL21-derived (T7 phage) or HEK293
In words: KINOMEscan binding assay, RIP3. The settings on record: equilibrium dissociation constant, class symbols. The text has this:
The Hill Slope was set to −1.

Assay [1] relates to U937 human histiocytic leukemia cell line. In words: Inhibition of TSQ induced necroptosis, 384 well plate format (CellTitre-Glo). As to conditions: Homo sapiens, U-937; U937 cells, TSQ cocktail (TNF, Smac mimetic, Q-VD-OPh), CelltiterGlo; read-out: Inhibition of TSQ-induced necroptosis (IC50 cell-based assay). The gist of the method: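 Necroptosis was induced in U937 cells (20,000/well) by hTNF-Fc 100 ng/ml, Smac mimetic 500 nM and Q-VD-OPh 10 μM for 48 h at 37 °C. Compounds were run as a 10-point 1:3 series from 36 μM in 0.3% DMSO. Viability was read by CellTiter-Glo luminescence (DMSO = 100%, DMSO+TSQ = 0%), and IC50 was taken from a 4-parameter fit.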
In general terms: In ATP-based viability assays light output follows the ATP content of the culture.

The next assay has as its target T2, RIP1 (Homo sapiens, UniProt Q13546).
T2 construct: purchased DiscoverX (KINOMEscan service); host or cells: E. coli BL21-derived (T7 phage) or HEK293
T2 sequence (Q13546 1-671): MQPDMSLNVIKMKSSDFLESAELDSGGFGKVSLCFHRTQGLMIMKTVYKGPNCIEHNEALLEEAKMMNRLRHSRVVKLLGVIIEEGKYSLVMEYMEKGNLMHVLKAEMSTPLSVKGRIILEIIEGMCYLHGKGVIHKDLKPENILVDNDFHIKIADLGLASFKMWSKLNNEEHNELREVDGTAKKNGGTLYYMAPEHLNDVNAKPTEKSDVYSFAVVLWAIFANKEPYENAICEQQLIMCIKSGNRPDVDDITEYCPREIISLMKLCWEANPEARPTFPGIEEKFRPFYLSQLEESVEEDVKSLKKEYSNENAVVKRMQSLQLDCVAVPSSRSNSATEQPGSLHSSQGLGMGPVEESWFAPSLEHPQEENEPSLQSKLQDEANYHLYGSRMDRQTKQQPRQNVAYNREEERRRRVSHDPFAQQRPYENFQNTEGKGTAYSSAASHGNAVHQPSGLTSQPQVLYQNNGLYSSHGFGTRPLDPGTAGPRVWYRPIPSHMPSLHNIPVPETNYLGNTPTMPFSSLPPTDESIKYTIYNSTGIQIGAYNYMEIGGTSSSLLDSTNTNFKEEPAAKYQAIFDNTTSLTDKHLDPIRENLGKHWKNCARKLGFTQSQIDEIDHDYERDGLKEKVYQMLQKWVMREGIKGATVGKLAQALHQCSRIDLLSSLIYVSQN
In words: KINOMEscan binding assay, RIP1. As to conditions: equilibrium dissociation constant, class symbols.

This passage reports IC50 and Kd results from US12583836B2 (Anaxis Pharma Pty Ltd, priority 2020, dated 2026).

What is called IC50 is the concentration at which inhibition is half-maximal. What is called Kd is the equilibrium constant for the complex coming apart. Read a high Kd as lower affinity.

T1 sequence (Q9Y572 whole entry): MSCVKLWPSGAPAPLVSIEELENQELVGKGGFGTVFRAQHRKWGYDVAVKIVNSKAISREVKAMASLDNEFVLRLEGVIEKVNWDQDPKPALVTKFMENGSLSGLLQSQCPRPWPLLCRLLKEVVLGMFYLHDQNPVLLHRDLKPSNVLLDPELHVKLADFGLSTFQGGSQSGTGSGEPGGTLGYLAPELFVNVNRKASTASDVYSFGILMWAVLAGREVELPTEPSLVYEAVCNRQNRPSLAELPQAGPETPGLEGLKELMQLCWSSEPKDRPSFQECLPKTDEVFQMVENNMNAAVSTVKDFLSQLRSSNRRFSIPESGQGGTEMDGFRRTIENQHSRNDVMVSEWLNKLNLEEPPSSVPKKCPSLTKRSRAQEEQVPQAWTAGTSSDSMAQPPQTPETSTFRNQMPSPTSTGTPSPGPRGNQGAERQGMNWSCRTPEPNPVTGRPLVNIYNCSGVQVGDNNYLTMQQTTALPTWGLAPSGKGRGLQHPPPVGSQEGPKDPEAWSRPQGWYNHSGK

As for `CC(Oc1cc(-c2n[nH]c(Nc3cnccn3)c2C(N)=O)ccc1NS(=O)(=O)C(F)F)c1ncco1` (racemic) [Compound 293, 3-(4-((difluoromethyl)sulfonamido)-3-(1-(oxazol-2-yl)ethoxy)phenyl)-5-(pyrazin-2-ylamino)-1H-pyrazole-4-carboxamide], the IC50 is above 30 µM in the assay on U937 cells and 0.01 to 1 µM in assay [1]. The dissociation constant Kd at RIP3 and at RIP1 was above 30 µM throughout.
Regarding `COC[C@@H](Cc1cc(-c2n[nH]c(Nc3cnccn3)c2C(N)=O)ccc1NS(=O)(=O)C(F)F)c1ccc(F)cc1` (single isomer, unassigned) [Compound 273], the IC50 in the assay on U937 cells is above 30 µM; in assay [1], 0.01 to 1 µM. For the same molecule, the Kd on RIP3 and at RIP1 was above 30 µM throughout.
`CCS(=O)(=O)Nc1ccc(-c2n[nH]c(Nc3cnc(OC)cn3)c2C(N)=O)cc1OCc1ccc(F)cc1` [Compound 14, 3-(4-(ethylsulfonamido)-3-((4-fluorobenzyl)oxy)phenyl) 5-((5-methoxypyrazin-2-yl)amino)-1H-pyrazole-4 carboxamide]: the values for the IC50 (in the assay with U937 cells; in assay [1]) were above 30 µM and 0.01 to 1 µM, respectively. For the same molecule, the Kd at RIP3 and at RIP1 was above 30 µM in each case.
With `CCS(=O)(=O)Nc1ccc(-c2n[nH]c(Nc3cnccn3)c2C(N)=O)c(OCc2ccc(F)cc2)c1` [Compound 21, 3-(4-(ethylsulfonamido)-2-((4-fluorobenzyl)oxy)phenyl)-5-(pyrazin-2-ylamino)-1H-pyrazole-4-carboxamide], the 50% inhibitory concentration (IC50) with U937 cells is above 30 µM; in assay [1], 1 to 30 µM. In addition, the dissociation constant (Kd) at RIP3 and on RIP1 was above 30 µM throughout.
On to `CCS(=O)(=O)Nc1ccc(-c2n[nH]c(Nc3cnccn3)c2C(N)=O)cc1OCc1cccc(Cl)c1` [Compound 41, 3-(3-((3-chlorobenzyl)oxy)-4-(ethylsulfonamido)phenyl)-5-(pyrazin-2-ylamino)-1H-pyrazole-4-carboxamide], for which the figures for the IC50 (with U937 cells; in assay [1]) were above 30 µM and 1 to 30 µM, respectively. Further, the Kd on RIP3 and at RIP1 was above 30 µM in each case.
On to `NC(=O)c1c(-c2ccc(NS(=O)(=O)CC(F)(F)F)cc2)n[nH]c1Nc1cccc(C(F)(F)F)n1` [Compound 43, 3-(4-((2,2,2-trifluoroethyl)sulfonamido)phenyl)-5-((6-(trifluoromethyl)pyridin-2-yl)amino)-1H-pyrazole-4-carboxamide], for which the IC50 was above 30 µM with U937 cells and 0.01 to 1 µM in assay [1]. Moreover, the values for the equilibrium dissociation constant (Kd) on RIP3 and at RIP1 were 1 to 30 µM and above 30 µM, respectively.
With `NC(=O)c1c(-c2ccc(NS(=O)(=O)C(F)F)cc2)n[nH]c1Nc1cnccn1` [Compound 63, 3-(4-((difluoromethyl)sulfonamido)phenyl)-5-(pyrazin-2-ylamino)-1H-pyrazole-4-carboxamide], the IC50 in the assay with U937 cells is above 30 µM; in assay [1] it was 1 to 30 µM. The Kd on RIP3 and on RIP1 was above 30 µM throughout.
Turning to `CC(C)S(=O)(=O)Nc1ccc(-c2n[nH]c(Nc3cnccn3)c2C(N)=O)cc1` [Compound 71, 3-(4-((1-methylethyl)sulfonamido)phenyl)-5-(pyrazin-2-ylamino)-1H-pyrazole-4-carboxamide], the IC50 in the assay with U937 cells is above 30 µM; in assay [1] it was 1 to 30 µM. The equilibrium dissociation constant (Kd) at RIP3 was 1 to 30 µM; on RIP1 it was above 30 µM.
With `CCS(=O)(=O)Nc1ccc(-c2n[nH]c(Nc3cnc(OC)cn3)c2C(N)=O)cc1` [Compound 90, 3-(4-(ethylsulfonamido)phenyl)-5-((5-methoxypyrazin-2-yl)amino)-1H-pyrazole-4-carboxamide], the IC50 with U937 cells is above 30 µM; in assay [1] it was 1 to 30 µM. Further, the Kd on RIP3 and at RIP1 was above 30 µM throughout.
In the case of `CCS(=O)(=O)Nc1ccc(-c2n[nH]c(Nc3ccc(C#N)cc3)c2C(N)=O)cc1` [Compound 102, 5-((4-cyanophenyl)amino)-3-(4-(ethylsulfonamido)phenyl)-1H-pyrazole-4-carboxamide], the results for the IC50 (in the assay with U937 cells; in assay [1]) were above 30 µM and 1 to 30 µM, respectively. The Kd at RIP3 and on RIP1 was above 30 µM in each case.
Take `CCS(=O)(=O)Nc1ccc(-c2n[nH]c(Nc3ccc(OC)nc3)c2C(N)=O)cc1` [Compound 115, 3-(4-(ethylsulfonamido)phenyl)-5-((6-methoxypyridin-3-yl)amino)-1H-pyrazole-4-carboxamide]: the values for the IC50 (with U937 cells; in assay [1]) were above 30 µM and 1 to 30 µM, respectively. In addition, the Kd on RIP3 is above 30 µM; at RIP1, 1 to 30 µM.
As to `CCS(=O)(=O)Nc1ccc(-c2n[nH]c(Nc3ccccc3)c2C(N)=O)cc1` [Compound 124, 3-(4-(ethylsulfonamido)phenyl)-5-(phenylamino)-1H-pyrazole-4-carboxamide], the half-inhibitory concentration (IC50) was above 30 µM in the assay on U937 cells and 1 to 30 µM in assay [1]. The Kd at RIP3 and on RIP1 was above 30 µM throughout.
Take `CCS(=O)(=O)Nc1ccc(-c2n[nH]c(Nc3ccc4cc(Cl)ccc4n3)c2C(N)=O)cc1OCc1ccc(F)cc1` [Compound 220, 5-((6-chloroquinolin-2-yl)amino)-3-(4-(ethylsulfonamido)-3-((4-fluorobenzyl)oxy)phenyl)-1H-pyrazole-4-carboxamide]: the Kd at RIP3 and on RIP1 was above 30 µM throughout.
Regarding `NC(=O)c1c(-c2ccc(NS(=O)(=O)C(F)F)c(OCc3ccc(F)c(F)c3)c2)n[nH]c1Nc1ccccn1` [Compound 226], the Kd on RIP3 and on RIP1 was above 30 µM each time.
Regarding `CCS(=O)(=O)Nc1ccc(-c2n[nH]c(Nc3cnccn3)c2C(N)=O)cc1OC(C)(C)c1ccc(F)cc1` [Compound 228, 3-(4-ethanesulfonamido-3-{[2-(4-fluorophenyl)propan-2-yl]oxy}phenyl)-5-[(pyrazin-2-yl)amino]-1H-pyrazole-4-carboxamide], the dissociation constant (Kd) at RIP3 and at RIP1 was above 30 µM throughout.
On to `CCS(=O)(=O)Nc1ccc(-c2n[nH]c(Nc3cnccn3)c2C(N)=O)cc1OC1CCCc2ccccc21` (stereo not drawn) [Compound 232, 3-[4-ethanesulfonamido-3-(1,2,3,4-tetrahydronaphthalen-1-yloxy)phenyl]-5-[(pyrazin-2-yl)amino]-1H-pyrazole-4-carboxamide], for which the dissociation constant (Kd) at RIP3 and at RIP1 was above 30 µM throughout.
For `N#Cc1cccc(Nc2[nH]nc(-c3ccc(NS(=O)(=O)CC(F)(F)F)cc3)c2C(N)=O)n1` [Compound 237, 5-[(6-cyanopyridin-2-yl)amino]-3-[4-(2,2,2-trifluoroethanesulfonamido)phenyl]-1H-pyrazole-4-carboxamide], the equilibrium dissociation constant (Kd) on RIP3 and on RIP1 was above 30 µM throughout.
Take `NC(=O)c1c(-c2ccc(NS(=O)(=O)CC(F)(F)F)c(OCc3ccc(F)cn3)c2)n[nH]c1Nc1ccccn1` [Compound 240, 3-{3-[(5-fluoropyridin-2-yl)methoxy]-4-(2,2,2-trifluoroethanesulfonamido)phenyl}-5-[(pyridin-2-yl)amino]-1H-pyrazole-4-carboxamide]: the Kd on RIP3 and at RIP1 was above 30 µM throughout.
As to `C[C@H](Oc1cc(NS(=O)(=O)CC(F)(F)F)ccc1-c1n[nH]c(Nc2cnccn2)c1C(N)=O)c1ccc(F)cc1` [Compound 244, 3-{2-[(1S)-1-(4-fluorophenyl)ethoxy]-4-(2,2,2-trifluoroethanesulfonamido)phenyl}-5-[(pyrazin-2-yl)amino]-1H-pyrazole-4-carboxamide], the Kd on RIP3 and at RIP1 was above 30 µM in each case.
On to `NC(=O)c1cccc(Nc2[nH]nc(-c3ccc(NS(=O)(=O)C(F)F)cc3)c2C(N)=O)n1` [Compound 257, 6-({4-carbamoyl-3-[4-(difluoromethanesulfonamido)phenyl]-1H-pyrazol-5-yl}amino)pyridine-2-carboxamide], for which the dissociation constant Kd on RIP3 and at RIP1 was above 30 µM each time.
`C[C@H](Oc1cc(-c2n[nH]c(Nc3cnccn3)c2C(N)=O)ccc1NS(=O)(=O)CC(F)(F)F)c1ccccn1` [Compound 267, 5-[(pyrazin-2-yl)amino]-3-{3-[(1S)-1-(pyridin-2-yl)ethoxy]-4-(2,2,2-trifluoroethanesulfonamido)phenyl]-1H-pyrazole-4-carboxamide]: the dissociation constant (Kd) at RIP3 and at RIP1 was above 30 µM in each case.
